# Results published in PubChem BioAssay AID1347416 (National Center for Advancing Translational Sciences (NCATS), 2020).
# The campaign covered roughly 4,100 compounds. About 1,600 (39%) were called active. This list was built around the results that the source calls inconclusive (neither active nor inactive); the mix of calls is not that of the screen. Calls come from the whole dose curve; as a rule, active = well fitted inhibition curve with a large enough effect; inconclusive = small, poorly fitted or top-dose-only effect; inactive = no such curve, though single readings can be large or run the other way. A potency beside an inconclusive call is a rough fit, not a confirmed value.
# Assay: qHTS Validation assay for Inhibitors of Plasmodium falciparum Dd2 growth in vitro; note: nearly all actives have a fitted effect of over 70% in size
# Conditions: P. falciparum Dd2 in RBCs, SYBR Green growth, 72 h; series mostly up to 28.7 µM
# Procedure, shortened: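 P. falciparum Dd2-infected red blood cells (2.5% hematocrit, 0.3% parasitemia) grown 72 h at 37 °C under 5% O2 with compounds in a titration, 29 uM to 0.5 nM final. Growth read as SYBR Green-1 fluorescence after ~16 h lysis; artesunate 300 nM as positive control.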
# Potency is the fitted concentration of half-maximal effect; tags give direction and shape of the fitted curve.
row,Compound,Potency
1,O=C(c1cccc(Cl)c1)N1CCCC(n2cc(-c3nc(-c4ccccc4)no3)nn2)C1 (stereo not given),"inconclusive: 18.8 µM [inhibitor, single point]"
2,CCCS(=O)(=O)N1CCC(Cc2ncc(C)n2Cc2ccc(F)cc2)CC1,"inconclusive: 21.1 µM [inhibitor, single point]"
3,CC(=O)N1CCCN(Cc2nc3c(n2Cc2ccccc2)C(=O)N(Cc2cccc(Cl)c2)CCN3)CC1,"inconclusive: 13.3 µM [inhibitor, single point]"
4,CN(C)C(=O)N1CCCC(C(=O)NCc2nc(C3CCCCC3)no2)C1 (stereo not given),inactive
5,Cc1cccc(OCC2(CNCc3cccnc3)C[C@@H](O)[C@@H](O)C2)n1 (stereo not given in full),inactive
6,OCC[n+]1ccc(/C=C/c2c[nH]c3ccccc23)cc1,"inconclusive: 2.99 µM [inhibitor, full curve]"
7,O=c1c(NCCc2ccc(Cl)cc2)c(-c2ccccc2)c1=O,"inconclusive: 8.41 µM [inhibitor, partial curve, poor fit]"
8,CC(C)(Oc1nn(Cc2cccc(Cl)c2)c2ccccc12)C(=O)NCCN1CCOCC1,active: 5.31 µM
9,CCOC(=O)C1=C(C)NC(=S)N(C(C)=O)C1c1ccc(Cl)cc1 (stereo not given),inactive
10,COc1ccc2nc3oc(C(=O)N4CC(C)CC(C)C4)cc3cc2c1 (stereo not given),"inconclusive: 8.41 µM [inhibitor, partial curve]"
11,Fc1ccc(-c2cnc3n2C[C@H](CNCc2ccccn2)OC3)cc1,"inconclusive: 15.3 µM [inhibitor, single point]"
12,Cn1cc(CC(=O)N2CCCc3ncc(C(=O)NCc4cccs4)cc32)c2ccccc21,"inconclusive: 0.473 µM [inhibitor, full curve, poor fit]"
13,COc1ccc(-c2cc(C(=O)NCc3c(C)cc(C)[nH]c3=O)c3c(c2)N(C)CCO3)cn1,"inconclusive: 19.3 µM [inhibitor, partial curve]"
14,COc1ccc(CNc2ncnc3c2[nH]c2ccccc23)cc1,"inconclusive: 10.6 µM [inhibitor, partial curve, poor fit]"
15,Oc1ccc(/C=N/Nc2ccnc3cc(Cl)ccc23)c(O)c1,"inconclusive: 0.596 µM [inhibitor, full curve]"
16,Cc1oc2ccc(O)c(CN3CCCCCC3)c2c1C(=O)Nc1cccc(Cl)c1C,active: 0.842 µM
17,CC(Oc1ccccc1)C(=O)N1CCCN(c2cc(-c3ccc(Cl)cc3)[nH]n2)CC1 (stereo not given),"inconclusive: 16.8 µM [inhibitor, single point]"
18,Cc1ccsc1C(=O)N1CC(Oc2ccc(-c3nc(-c4ccccc4)no3)cc2)C1,inactive
19,CCCCCOC(=O)c1ccc(NC(=O)c2ccco2)cc1,"inconclusive: 13.3 µM [inhibitor, single point]"
20,COc1ccccc1CC(=O)N1CCC2(CC1)N=C(c1cccc(Br)c1)NO2,inactive
21,Cc1ccc(CC(=O)NCc2nnc3c(-c4nc(C(C)C)no4)cccn23)cc1,inactive
22,O=C1NC2(CCN(C(=O)c3ccc(C(F)(F)F)cc3)CC2)COc2ccccc21,active: 8.41 µM
23,O=C(Cc1c[nH]c2ncc(-c3ccc(Cl)cc3)cc12)NCc1cccnc1,active: 1.72 µM
24,COc1ccc(C(=O)N2CC(Oc3ccccc3-c3nc(-c4ccccc4)no3)C2)cc1,"inconclusive: 21.1 µM [inhibitor, single point]"

row,Compound,Potency
1,O[C@H]1[C@H](NCc2ccc(OC(F)(F)F)cc2)[C@H]2CO[C@H](O2)[C@@H]1N1CCC(Cc2ccccc2)CC1,"inconclusive: 15 µM [inhibitor, single point]"
2,Cc1sc(NC(=O)c2ccco2)c(C(c2cccnc2)N2CCC(C)CC2)c1C (stereo not given),active: 5.31 µM
3,COc1ccc(CCn2c(=N)c(C(=O)NC3CCCCC3)cc3c(=O)n4ccccc4nc32)cc1,"inconclusive: 7.5 µM [inhibitor, single point]"
4,CCC(C)NC(=O)N1CC(c2nc(CCOCC3CCOCC3)no2)C1 (stereo not given),inactive
5,O=C1NCCCCCN(C(=O)c2ccsc2)[C@@H]2C[C@@H](C(=O)N3CCc4ccccc4C3)C[C@H]12,inactive
6,CN(C)C(=O)c1cccnc1OC1CCN(CCc2ccccc2)CC1,inactive
7,COc1cccc(C(=O)Nc2ccc3c(c2)CN(Cc2cccc(OC)c2OC)C(=O)C(C)O3)c1 (stereo not given),"inconclusive: 10.6 µM [inhibitor, partial curve, poor fit]"
8,CC(C)CNc1ccc2c(n1)C(C)(C(=O)NC1COC1)CN(Cc1ccccc1)C2 (stereo not given),"inconclusive: 30.6 µM [inhibitor, single point]"
9,Cc1ccc([N+](=O)[O-])cc1S(=O)(=O)N1CCn2cccc2C1c1ccccc1 (stereo not given),"inconclusive: 21.1 µM [inhibitor, single point]"
10,COc1ccccc1Cn1cc(C(=O)c2ccc(C)cc2)c(=O)c2cc(C)ccc21,inactive
11,CN(Cc1cccn1C)C(=O)C1CC1,inactive
12,CCCN(CCC)CC(O)Cn1cc(/C=C/C(=O)c2ccc(C)cc2)c2ccccc21 (stereo not given),active: 4.73 µM
13,CCCN1CC(Oc2cccc(C(=O)N3CCOCC3)c2)C1,"inconclusive: 16.8 µM [inhibitor, single point]"
14,CCCCOc1ccc(C(=O)N/C(=C\c2cccc([N+](=O)[O-])c2)C(=O)OC(C)C)cc1,active: 2.11 µM
15,Cc1ccc(Cc2nc3ccccc3nc2SCC(=O)N2CCN(c3ccccc3)CC2)cc1,inactive
16,CSc1nc2[nH]c3c(c2c2ncnn12)CCCC3,"inconclusive: 21.1 µM [inhibitor, single point]"
17,CCOC(=O)c1ccc(-c2ccc(/C=C(\C#N)c3nc4ccc(C)cc4[nH]3)o2)cc1,"inconclusive: 4.22 µM [inhibitor, single point]"
18,COc1ccc2[nH]c(C[C@@H]3C[C@@H](C(C)C)[C@H](CNCc4cccnc4)C=C3C)nc2n1,active: 19.3 µM
19,CCCn1c(C)cnc1CC1CCCN(S(=O)(=O)c2cc(OC)ccc2OC)C1 (stereo not given),"inconclusive: 10.6 µM [inhibitor, partial curve]"
20,CCN1c2cc(C(=O)Nc3ccc(OC(F)(F)F)cc3)ccc2C(=O)N2CCCCC21 (stereo not given),"inconclusive: 21.1 µM [inhibitor, single point]"
21,Cc1cccn2c(=O)c3cc(C(=O)NC(C)c4ccccc4)c(=N)n(CCOCCO)c3nc12 (stereo not given),active: 10.6 µM
22,CC(=O)N1CCC([C@@H]2CN(C3CCN(CC(C)C)CC3)C[C@H]2CO)CC1,inactive
23,CC(=O)Nc1cccc(-c2ccnc(-c3nnc(C)n3Cc3ccccc3)c2)c1,inactive
24,CCCC1=[N+](CC)CCn2c(C)ccc21,inactive

row,Compound,Potency
1,COc1ccc(C(=O)C[n+]2ccc(N(C)C)cc2)cc1,"inconclusive: 10.6 µM [inhibitor, partial curve, poor fit]"
2,O=C(c1cccc(O)c1)N1CC=C(c2cnc3cnc(-c4ccccc4)cn23)CC1,active: 9.68 µM
3,O=C(Cc1ccc(Nc2nc3ccc(Br)cc3[nH]2)cc1)NCCc1cccs1,"inconclusive: 21.1 µM [inhibitor, single point]"
4,COc1cc2c3nnc(-c4ccc(F)cc4)c-3cn(Cc3cccc(F)c3)c2cc1OC,"inconclusive: 5.31 µM [inhibitor, full curve, poor fit]"
5,CCOc1cc(C)c(C(C)C)cc1S(=O)(=O)n1ccnc1CC,"inconclusive: 15 µM [inhibitor, single point]"
6,COc1cc(C(=O)N/N=C(\c2ccccc2)c2ccccn2)cc(OC)c1OC,"inconclusive: 11.9 µM [inhibitor, partial curve, poor fit]"
7,CC(C)(C)NC(=S)Nc1ccc(Nc2ccccc2)cc1,inactive
8,O=C(CN1CCC(n2nnc3cc(F)ccc32)CC1)Nc1ccccc1N1CCOCC1,active: 5.31 µM
9,COc1ccc(Br)cc1CN1CCC(N2CCCC2)CC1,"inconclusive: 13.3 µM [inhibitor, single point]"
10,CCOC(=O)c1cccc(NC(=O)CCn2c(-c3ccc(F)cc3)cc(C(=O)OCC)c2C)c1,active: 0.075 µM
11,C=CCCC(CN1CCCOCC1)Oc1nccc(N(C)CC)n1 (stereo not given),"inconclusive: 21.1 µM [inhibitor, single point]"
12,CCC(C(=O)N1CCN(c2cc(-c3cccs3)[nH]n2)CC1)c1ccccc1 (stereo not given),"inconclusive: 23.7 µM [inhibitor, single point]"
13,CCOc1cc2[nH]c(=O)n(Cc3ccc(C(=O)N4CCN(c5cccc(Cl)c5)CC4)cc3)c(=O)c2cc1OCC,inactive
14,COc1cc(C2NC(=O)c3c(sc4c3CCN(C)C4)N2)cc(OC)c1OC (stereo not given),inactive
15,O=C(Nc1ccc(F)cc1F)N1CCOc2ccc(CN3CCc4ccccc4C3)cc2C1,active: 16.8 µM
16,O=S(=O)(c1ccc(F)cc1)N1CCN(C(=S)NCc2ccco2)CC1,"inconclusive: 2.11 µM [inhibitor, full curve, poor fit]"
17,N=c1c2ccccc2nnn1-c1ccc(C(F)(F)F)cc1,"inconclusive: 3.76 µM [inhibitor, full curve]"
18,CCC(C)NC(=O)N1CC(Oc2ccc(-c3noc(C4CCOCC4)n3)cc2)C1 (stereo not given),inactive
19,CC1(c2ccccc2)N(Cc2ccc(O)cc2)C(=O)OC12CCN(C(=O)c1ccccc1)CC2 (stereo not given),"inconclusive: 15 µM [inhibitor, partial curve, poor fit]"
20,O=C(c1ccc(F)c(Cl)c1)N1CCC[C@H]1c1nc(-c2ccccc2)no1,inactive
21,COc1cnc(-c2ccccn2)nc1Oc1ccccc1,"inconclusive: 8.41 µM [inhibitor, single point]"
22,CN(C)c1cccc(C(=O)N2CCC(c3n[nH]c(=O)n3-c3ccccc3)CC2)c1,inactive
